Source: publication PMC12136788
The list shows a part of the results.

T1: UNK ZnF1-3 (human, UniProt Q9C0B0 31-174)
T1 sequence: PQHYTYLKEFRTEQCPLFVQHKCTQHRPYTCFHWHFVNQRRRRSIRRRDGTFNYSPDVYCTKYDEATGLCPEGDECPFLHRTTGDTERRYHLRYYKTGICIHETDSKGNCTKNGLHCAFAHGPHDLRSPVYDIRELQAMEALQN

B1: chr11:69650846:69650847:-_ENSMUSG00000051790_ENSMUST00000108634|mus_hu|FALSE|FALSE (ssRNA)
RNA: GGGAGUUCUACAGUCCGACGAUCGAACCCCGCAGUAGGGACGAUAGAGAAAGGAGGGGGCAACGGGACAGGACUAGAUUGAGGAUCCGCUGGUUCCGUGGGCCGGCUUCGAGGGACCAGAAGGCGGUCCAGGCGGAGGAUCCUCAACAGAGGAUUGAGCAUCA
B2: chr5:80785125:80785126:-_ENSG00000145687_ENST00000509013|hu_mus|FALSE|FALSE (ssRNA)
RNA: GGGAGUUCUACAGUCCGACGAUCGGCCGCCAGGGUACCGAGGCGACAUAAAAGGCUGAAAGAACCCUGGUGGCACGGGACCUACUGGCAUGCCAUCUCCUGGGGGCAUGUUUCCUAGCACGGGGCUGGGAGCUGCUGCAGCACCAACAGAGGAUUGAGCAUCA
B3: chr4:76721835:76721836:+_ENSG00000138768_ENST00000264904|hu_mus|hu_hu_hu_mus_True|18_108 (ssRNA)
RNA: GGGAGUUCUACAGUCCGACGAUCGUUGGCUGGGGUUUUCUGAGACGCUCUGGAAUAUAACUCAUGUUUGCUAAUAAAUCCUAGUUUCUCUAUGAAAUUCUCUUUGCCAAUCCUCUUUCAAUCAGUUUGCUUUAGUUUCUCUUUCAACAGAGGAUUGAGCAUCA
B4: chr2:160604868:160604869:+_ENSG00000136536_ENST00000409591|perfect_dup|FALSE|FALSE (ssRNA)
RNA: GGGAGUUCUACAGUCCGACGAUCUGAAUCUGACUCAGAGCUAUGAUUGUGGCUAAGAGAUGACAAACCCCAUCUUCGCCUAAGAAAUCGAAAUCCCUGAGAAGCUUCAGAUGCCCUAUUAUCGGGAACUUCAGAAGCUGAUGGCAACAGAGGAUUGAGCAUCA
B5: chr7:156476592:156476593:-_ENSG00000105983_ENST00000359422|hu_mus|FALSE|FALSE (ssRNA)
RNA: GGGAGUUCUACAGUCCGACGAUCCUAUAGACACACAGCUUUUCCUCAGUCUCAAGACUCAGGGUUUAACCAAAAGCUGUCAUAUCCGGCCAAUCAGAAAACUCCCAGGAGACACAGAUGACUAGUGCUAAGUUGUAAGUGCUUCAACAGAGGAUUGAGCAUCA
B6: chr3:139236485:139236486:-_ENSG00000114115_ENST00000232219|hu_hu|FALSE|FALSE (ssRNA)
RNA: GGGAGUUCUACAGUCCGACGAUCUCCUGCUGAUUCCUUGGGACAAGGUUGUCUGCCUGGGCCUCACUGCACCUUCUUGAAUACUUGCUUGCAGACCACACCUUCCACUCUCAUCUCCAGGUGCAGCUCAUCACCCUCGAUCCACAACAGAGGAUUGAGCAUCA
B7: chr7:151622947:151622948:-_ENSMUSG00000031078_ENSMUST00000033407|mus_hu|FALSE|FALSE (ssRNA)
RNA: GGGAGUUCUACAGUCCGACGAUCGAAGAGCCCGUACCGGCCCUUGCACACCCCGCGCCACCAGCCGUCGUCAAUCAUCUCGAUGUUGGUGAUGAUGUCAUCAGGGUCAAAUGAGAUCUCAUCAUCGCCCGCAGCCUGGUAGUCCAACAGAGGAUUGAGCAUCA
B8: chr3:47957716:47957717:-_ENSG00000047849_ENST00000395734|hu_hu|motif|central (ssRNA)
RNA: GGGAGUUCUACAGUCCGACGAUCAUCCUCAGUCAGGGCCACCUCCAUUUCUGGAGGCAGACAUACGUUCUUGAUGAGAACGGCUUCUGUUUCUGGAGGUGGAGUCACAUCCUUGCCCAGAGCCAUUUCUGUUUCUGAUAGUGGCAACAGAGGAUUGAGCAUCA
B9: chr11:69466514:69466515:+_ENSG00000110092_ENST00000227507|hu_hu|motif|central (ssRNA)
RNA: GGGAGUUCUACAGUCCGACGAUCAUAUGUUUUUCUACCUAAAACCCUCUUCUACUUUAAAAAUGGUUUGCUGAAUUUUUCGGUGUUUUUAAAAUGUUUUUAUGCUUUUUUUUAAACACGUAAAGGAUGGAACCUAAUCCUCUCCAACAGAGGAUUGAGCAUCA
B10: chr2:179763710:179763711:+_ENSMUSG00000039108_ENSMUST00000058764|mus_hu|motif|central (ssRNA)
RNA: GGGAGUUCUACAGUCCGACGAUCCUGCUGUGGCUCUGAGGACAAGUCAAGCUCUGAAACGGGCUGUGGAGAUGGAGAAGAGCGGGGGCUGGAAGCAGCGGCUGAGGCUGGAGGGCUUACCAACUUCUCUAGACCCAGGGAGGCCAACAGAGGAUUGAGCAUCA
B11: chr17:16285543:16285544:+_ENSG00000170315_ENST00000577640|hu_hu|FALSE|FALSE (ssRNA)
RNA: GGGAGUUCUACAGUCCGACGAUCCAGCUGCUUGCCUGCAAAGAUGAGCCUCUGCUGGUCGGGAGGGAUGCCUUCUUUAUCCUGGAUCUUGGCCUUCACAUUUUCGAUGGUGUCACUGGGCUCCACUUCCAGGGUGAUGGUCUUCAACAGAGGAUUGAGCAUCA
B12: chr7:75932113:75932114:+_ENSG00000106211_ENST00000248553|hu_hu|hu_hu_hu_mus_False|28_58 (ssRNA)
RNA: GGGAGUUCUACAGUCCGACGAUCCUGCGACCACUCAUCGGGCAACCGGGGCACCCCGAAAGCUUGAUCGAAGAGGCGGCUAUGCGGAGGGUACCAGUCCCGGAAUGCCCAGCUGGGCGGGCUCCGCAGCAGCGAGAAGGGCACCAACAGAGGAUUGAGCAUCA
B13: chr15:63448706:63448707:-_ENSG00000185088_ENST00000411926|hu_hu|motif|central (ssRNA)
RNA: GGGAGUUCUACAGUCCGACGAUCUGAUCUUGUAGCAACCUGGACAUUUUACAUCCAUAAAGUAAGAAUUUGGACUUUGUACGGGGCGUUUCUUUUUAUGUUUUUUCUUUUCCUCUUCCAAGGACGGAUGUAGUAAAUCUCUAGCAACAGAGGAUUGAGCAUCA
B14: chr17:88387627:88387628:+_ENSMUSG00000005370_ENSMUST00000005503|mus_mus|motif|central (ssRNA)
RNA: GGGAGUUCUACAGUCCGACGAUCAAAAUCGUCUCCAAAAAAAGUCUUUGUAAUGCAGGGAUGUCGUGACCCUUUAAACUCGGAGAAGGGAUGUGUGUCUUCUCCUGGUAACACAAUUUCUGGGCGACACAUAGGACCAUCUCCCAACAGAGGAUUGAGCAUCA
B15: 17782281_17793209_281_CDS_ENSG00000078674_ENST00000519253|human|control|control (ssRNA)
RNA: GGGAGUUCUACAGUCCGACGAUCGUUGAGCCUGUCAUCAACAUUCUCAUUACUCCAGUUUGGUAAAUCCUGAUCAUUCAUGCCAUCUUCAAAGGGACCUCCUCCUGUGGCCAUACUGGAUUUAACAAUUAACUCUCUGUUUAGCAACAGAGGAUUGAGCAUCA
B16: chr7:54825262:54825263:-_ENSG00000132432_ENST00000352861|hu_hu|hu_hu_hu_mus_False|1_48 (ssRNA)
RNA: GGGAGUUCUACAGUCCGACGAUCCUGCCGGCUGGGCUCCACAAACUGCAUUACCUGAUCCAUGUUUGUUGGAUGGCGGAUUGAGAGUGCCAGGGACCGUAGCUCAGGAGAGAACCGAGCCCAACGGAACCGGAAGCGGAAUCCCAACAGAGGAUUGAGCAUCA
B17: 100315748_100315868_169_5pUTR_ENSG00000162688_ENST00000361915|human|control|control (ssRNA)
RNA: GGGAGUUCUACAGUCCGACGAUCGCUGCCCAGCCUCGCACAGAAGCCGCAGCCCAAGGAGGGCCGGGCGCCGUGAAGGGCAAAGGGAGGGGCGGCGAGCGACCGGGGCAGCGCCGAGGCAGCUGGGUGAGAAGCAGGCAGAGUCAACAGAGGAUUGAGCAUCA
B18: chr1:167252050:167252051:+_ENSMUSG00000040836_ENSMUST00000111450|mus_mus|motif|central (ssRNA)
RNA: GGGAGUUCUACAGUCCGACGAUCGGAUACCAUUGAAGACAAGAGCCACAUGGUGGCUUCCCUUUCACAUCCACCAUCUCGGGUCCUCCUGAUGCCCCAGCCACAUCUCCAUCUGCUUCUAACGUGUGCUUUCGAAGCCUCGUUCAACAGAGGAUUGAGCAUCA
B19: chr2:5814250:5814251:-_ENSMUSG00000025816_ENSMUST00000102981|mus_hu|mus_mus_mus_hu_True|38_108 (ssRNA)
RNA: GGGAGUUCUACAGUCCGACGAUCUUCCUUUCAGGCUUCUGAAUUUCUGGUAGAACUGCACAGAAUGGUUUGAUAACUUCUAAAAAUUUGAUGCCCAUGGCGGCGGCUGGGGAGGCCCAGGGGGAAACCGCGGCCUCGGCGCUGCAACAGAGGAUUGAGCAUCA
B20: chr12:16048344:16048345:+_ENSG00000023734_ENST00000419869|hu_hu|hu_hu_hu_mus_True|8_68 (ssRNA)
RNA: GGGAGUUCUACAGUCCGACGAUCAGAUCGUCCAUAAGUAAUAACCAAAAUCUCUCCUUCAGGAAUAUAUUCCAUACUGCUAACAGACAUAUUAAAAUUCAGAGAUUUCACUUCUGUCAUUGUGGCAUGAUCCCAAAGCCGAACCAACAGAGGAUUGAGCAUCA
B21: 64422554_64422674_5156_CDS_ENSG00000118482_ENST00000393387|human|control|control (ssRNA)
RNA: GGGAGUUCUACAGUCCGACGAUCAGUCUGUAUGUUUUCUACUGAUGGUGAGUUUUGUGCAACUUUUAAAUUGUCACUCUGCUGAACACACGAGUUUUUCUCUGCAGAACACAACUUUUCCUCUACAUUGAUUUGUUCUGUUAACAACAGAGGAUUGAGCAUCA
B22: chr1:39494447:39494448:+_ENSG00000168653_ENST00000372967|hu_mus|hu_hu_hu_mus_False|8_78 (ssRNA)
RNA: GGGAGUUCUACAGUCCGACGAUCGCACCGAGCGGCGUUCUUAUAGGGCUGUUCUGCACUCUGGAUUAUAAAGUGCCGGUCCAGGCUGAUGCCCAGCUUUUUCUGUAUGUCAAGGAAAGGCAUGGCUGAUGCUCGUGCUUGUCACAACAGAGGAUUGAGCAUCA

biological target: T1, UNK ZnF1-3; assay: nsRBNS (natural sequence RNA bind-n-seq); RBNS binding buffer (assumed for nsRBNS): 25 mM Tris pH 7.5, 150 mM KCl, 3 mM MgCl2, 0.01% Triton X-100, 500 ug/ml BSA, 20 U/ml SUPERase-In, 4 C; UNK is unkempt and MSI1 is Musashi-1; names of the RNAs are library labels; protein concentration not given here; high values mean tight binding

Binder | binding signal [enrichment R]
B1 | 1.03
B2 | 0.743
B3 | 0.488
B4 | 0.706
B5 | 0.94
B6 | 0.614
B7 | 0.854
B8 | 0.629
B9 | 0.686
B10 | 2.04
B11 | 0.691
B12 | 0.553
B13 | 0.947
B14 | 0.635
B15 | 0.902
B16 | 1.19
B17 | 1.32
B18 | 0.721
B19 | 1.22
B20 | 0.933
B21 | 0.436
B22 | 0.84
